Reference: US8012963B2, “3,4-dihydro-2H-benzo[1,4]oxazine and thiazine derivatives as CETP inhibitors” (Janssen Pharmaceutica N.V., priority 2006, dated 2011)
Not every entry of the source has a single result; some have several. Only these are listed. The source may hold further records. Results that share an entry read as repeated measurements (runs, samples, wells or individuals).

Biological target: T1, CETP (Homo sapiens, UniProt P11597)
T1 construct: from tissue; host or cells: human plasma from normal volunteers
T1 sequence (P11597 18-493): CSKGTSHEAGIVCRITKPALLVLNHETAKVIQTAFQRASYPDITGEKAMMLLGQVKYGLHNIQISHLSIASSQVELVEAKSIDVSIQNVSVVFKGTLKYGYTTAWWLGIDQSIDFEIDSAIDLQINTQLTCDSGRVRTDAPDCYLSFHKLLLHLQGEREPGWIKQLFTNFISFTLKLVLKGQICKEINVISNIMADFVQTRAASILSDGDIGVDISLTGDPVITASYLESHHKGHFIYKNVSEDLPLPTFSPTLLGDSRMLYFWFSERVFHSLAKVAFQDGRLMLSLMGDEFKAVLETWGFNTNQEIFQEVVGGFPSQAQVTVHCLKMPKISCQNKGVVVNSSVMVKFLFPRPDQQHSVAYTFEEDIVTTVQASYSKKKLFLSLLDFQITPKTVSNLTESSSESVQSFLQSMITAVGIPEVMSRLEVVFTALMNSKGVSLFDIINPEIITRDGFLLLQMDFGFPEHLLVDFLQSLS
Experiment: CETP in vitro assay ([3H]CE-HDL transfer, Amersham kit TRKQ7005; modified protocol in human plasma)
Type: biochemical
Conditions: multiple values = multiple measurements
Procedure: The CETP inhibitory activity of the compounds was determined using a commercially available kit from Amersham Biosciences (Catalog #TRKQ7005).
For the measurement of inhibitory activity in human plasma, a modified protocol (Connolly, D. T. et al., Biochemistry, 39 13870-13879, 2000) was used. Briefly, 80 μl of human plasma (obtained from normal volunteers), approximately 25 μg/ml (200) of [^3H]CE-HDL (Amersham Biosciences from kit TRKQ7005) and 1 μl of compound dissolved in DMSO was incubated for at least 4 hrs at 37° C. and non-specific transfer was determined by incubating a corresponding plate at 4° C. (blank). After the incubation period, 100 of a solution of 1% Dextralip 50/0.5M MgCl2, pH 7.4 was added, vortexed and incubated at room temperature for 10 min. The plate was then centrifuged for 30 min at 10° C. at 3000 rpm in a Sorvall RT6000B centrifuge. Fifty microliters of the supernatant was transferred to a Picoplate (Packard) containing 100 μl of Microscint 40 (Perkin Elmer) and mixed for 30 min using a plate mixer. The radioactivity was counted using a TopCount (Perkin Elmer) and the % control was determined in the samples using the following formula: % transfer relative to vehicle controls (% control)=[cpm blank-cpm test]/cpm blank/cpm control]×100. IC50s were calculated from plots of the % control versus compound concentration. […]

IC50: 1 nM and 322 nM [one cell]
Compound: OC(CN1c2cccc(-c3cccc(F)c3)c2OCC1c1cccc(OC(F)(F)C(F)F)c1)C(F)(F)F (single isomer, unassigned) [Compound 66, 1,1,1-Trifluoro-3-{8-(3-fluoro-phenyl)-3-[3-(1,1,2,2-tetrafluoro-ethoxy)-phenyl]-2,3-dihydro-benzo[1,4]oxazin-4-yl}-propan-2-ol]
